Measured values: a compilation of properties of binary mixtures (doi:10.1016/j.jct.2020.106330)
The densities may have been worked out from excess volumes.

Assay: xn = mol fraction of the nth substance listed
Conditions: 101.3 kPa

CN1CCCC1=O + CCCC[n+]1ccn(C)c1.F[P-](F)(F)(F)(F)F
x2 = 0
Conditions | mass density [kg/m3]
308.15 K | 1018.2
313.15 K | 1013.7
318.15 K | 1009.3
323.15 K | 1004.8

CCCC[n+]1ccn(C)c1.F[P-](F)(F)(F)(F)F + CN1CCCC1=O
mass density [kg/m3]
Conditions | 303.15 K | 308.15 K | 313.15 K | 318.15 K | 323.15 K
x1 = 0.0513 | 1062.4 | 1058 | 1053.6 | – | 1044.8
x1 = 0.1028 | 1096.7 | 1092.3 | 1088 | 1083.6 | 1079.3
x1 = 0.1422 | 1119.8 | 1115.4 | 1111.1 | 1106.8 | 1102.5
x1 = 0.1894 | – | 1140.2 | 1135.9 | 1131.6 | 1127.3
x1 = 0.2988 | – | 1189 | 1184.7 | 1180.4 | 1176.1
x1 = 0.499 | 1260.6 | 1256.4 | 1252.2 | – | 1243.9
x1 = 0.591 | – | 1280.8 | 1276.6 | – | 1268.2
x1 = 0.6991 | – | – | 1301.8 | 1297.6 | –
x1 = 0.812 | 1332.4 | 1328.2 | 1324.1 | 1319.9 | 1315.8
x1 = 0.8415 | 1337.7 | 1333.5 | 1329.4 | 1325.2 | 1321.1
x1 = 0.8812 | 1344.7 | – | 1336.3 | 1332.2 | 1328.1
x1 = 0.9423 | 1355.2 | 1350.9 | – | 1342.6 | –
x1 = 1 | – | 1360.4 | 1356.2 | 1352.1 | 1348
